In all, about 350,000 compounds went through this assay and about 260 (0.074%) were called active. Inconclusive results, whose numbers are uncertain, are shown with a selection of clear calls. The call rests on the fitted dose curve; in most records, active means well fitted inhibition curve with a large enough effect; inconclusive means small, poorly fitted or top-dose-only effect; inactive means no such curve, though single readings can be large or run the other way. A potency beside an inconclusive call is a rough fit, not a confirmed value.
The compounds below were run against Ferritin light chain (Equus caballus) (UniProt P02791) (assay: qHTS Assay for Identification of Novel General Anesthetics). Conditions: apoferritin/1-aminoanthracene competitive binding, fluorescence; activity change, negative = displacement: at 77.5 µM (top of the series).
Sequence of UniProt P02791 (P02791 whole entry, looked up): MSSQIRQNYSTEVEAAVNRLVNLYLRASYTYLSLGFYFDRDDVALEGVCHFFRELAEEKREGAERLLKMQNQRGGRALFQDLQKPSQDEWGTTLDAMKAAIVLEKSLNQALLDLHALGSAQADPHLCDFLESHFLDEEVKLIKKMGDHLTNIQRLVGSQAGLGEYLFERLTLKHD
Outline: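 Probe: 1-aminoanthracene (50% saturated, PBS). Protein: horse-spleen apoferritin, 10 uM. Incubation: 10 min, room temperature. Detection: 380 nm excitation, 535 nm emission. Analysis: normalized response, four-parameter Hill.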
Further: nearly all actives have a fitted effect of over 20% in size.
On the % scale 0 is the no-effect control and ±100 the full control effect; potency means the concentration at half of the fitted maximal effect; tags describe the fitted curve by direction and shape.

Potency, inconclusive:
CCc1ccc(OCC(=O)N/N=C2\CC(=O)c3ccccc32)cc1 22.4 µM [inhibitor, partial curve]
C[C@@H](NC(=O)c1nc[nH]c1C(=O)N[C@@H](CCCCNC(=O)OC(C)(C)C)C(=O)OC(C)(C)C)c1ccccc1 3.55 µM [inhibitor, partial curve]
O=C(NCc1ccccc1)c1cccc(COc2ccc(Cl)cc2)c1 3.55 µM [inhibitor, full curve]
CC1CCN(C(=O)Oc2ccccc2)CC1 25.1 µM [inhibitor, partial curve]
CC(=O)N1CCN=C1SCc1ccc(Br)cc1 20 µM [inhibitor, partial curve]
Cc1ccc(-c2ccc(SCC(=O)Nc3ccc4c(c3)OCCO4)nn2)cc1 50.1 µM [inhibitor, single point]
CCN(Cc1ccccc1)Cc1c(F)cccc1F 50.1 µM [inhibitor, single point]
CCOc1ccc2nc(SCC(=O)Nc3ccc4c(c3)OCCO4)[nH]c2c1 31.6 µM [inhibitor, partial curve]
O=C(CC(Nc1cccc(Cl)c1Cl)C(=O)O)c1ccccc1 (stereo not drawn) 39.8 µM [inhibitor, single point]
CCC(C(=O)N1CC2(C)CC1CC(C)(C)C2)N1C(=O)c2ccccc2C1=O (stereo not drawn) 50.1 µM [inhibitor, single point]
O=C(CSc1cccs1)Nc1ccc2ccccc2c1 25.1 µM [inhibitor, partial curve]
CCOC(=O)N1CCN(Cc2cc(=O)oc3cc4c(cc23)CCC4)CC1 39.8 µM [inhibitor, partial curve]
CCOC(=O)/C(=C\c1cccc(O)c1)c1nc2sc(C)c(C)c2c(=O)[nH]1 28.2 µM [inhibitor, single point]
O=C(COC(=O)c1cc[n+]([O-])cc1)NCC12CC3CC(CC(C3)C1)C2 28.2 µM [inhibitor, partial curve]
CCn1c(CNC(=O)C23CC4CC(CC(C4)C2)C3)nnc1SCC(=O)Nc1ccc(OC)cc1 20 µM [inhibitor, partial curve]
[2H]C([2H])(CCOS(N)(=O)=O)c1ccccc1 39.8 µM [inhibitor, single point]
O=C(c1cc(F)ccc1F)C1CCCN(C(=O)c2ccc(F)cc2Cl)C1 (stereo not drawn) 31.6 µM [inhibitor, partial curve]
Cc1[nH]c2ccc(C(=O)NCCc3ccccc3Cl)cc2c1C 20 µM [inhibitor, partial curve]
O=C(COC(=O)c1ccccc1C(=O)N1CCN(c2ccccc2)CC1)Nc1ccc(F)cc1 25.1 µM [inhibitor, partial curve]
Cc1nc2ncnn2c(N2CCN(C(c3ccccc3)c3ccccc3)CC2)c1C 10 µM [inhibitor, partial curve]
CCCCCCOc1ccc(N2C(=O)CC(S/C(N)=N/N=C(\C)c3cccs3)C2=O)cc1 (stereo not drawn) 5.62 µM [inhibitor, full curve]
Cc1ccc(S(=O)(=O)c2nnn3c2nc(NCc2ccc(F)cc2)c2sccc23)cc1C 14.1 µM [inhibitor, partial curve]
CC1CCCC(NC(=O)CCC(=O)c2ccc(F)cc2)C1C (stereo not drawn) 28.2 µM [inhibitor, partial curve]
CC12CCC(C(=O)N(CC3CO3)C1=O)C2(C)C (stereo not drawn) 31.6 µM [inhibitor, partial curve]
Cc1ccc(C(=O)Nc2nccs2)cc1S(=O)(=O)N1CCCCC1 35.5 µM [inhibitor, partial curve]
COc1ccccc1CNc1cc(C)ccc1C 31.6 µM [inhibitor, single point]
CCOC(=O)N1CCC(Nc2c(Nc3cccc(CC)c3)c(=O)c2=O)CC1 31.6 µM [inhibitor, partial curve]
COc1ccc2cc(C(=O)N3CCCCCC3)sc(=O)c2c1OC 22.4 µM [inhibitor, partial curve]
O=C(N/N=C/c1cccc(Oc2ccccc2)c1)c1ccccc1Br 3.98 µM [inhibitor, full curve]
O=C(Nc1ccccc1-c1ccccc1)c1cccc([N+](=O)[O-])c1 12.6 µM [inhibitor, partial curve]
COc1cnc(SCc2ccc(Cl)cc2)nc1Cl 15.8 µM [inhibitor, partial curve]
COc1ccc2c(COC(=O)CNC(=O)C34CC5CC(CC(C5)C3)C4)cc(=O)oc2c1 22.4 µM [inhibitor, partial curve]

Potency, inactive:
CCOc1ccc2nc(NCCNC(=O)C(C)C)c(C)cc2c1
O=C(COC(=O)CC1CCCC1)Nc1cc2c(cc1Cl)C(=O)c1ccccc1C2=O
O=C1C2C(c3ccccc3)CC=CC2C(c2ccc(C(F)(F)F)cc2)N1Cc1ccccc1 (stereo not drawn)
CCOc1ccccc1NC(=O)C(C)n1nnc2sc3c(c2c1=O)CCCC3 (stereo not drawn)
COc1ccc(CN(N=O)C2CC(=O)N(c3ccc(OC)cc3)C2=O)cc1 (stereo not drawn)
COc1ccc(/C=N/Nc2snc(SC)c2C#N)cc1OC
Cc1nn(-c2ccc(N3CCCC3)nn2)c(C)c1CCC(=O)NCc1ccc(F)cc1
COc1ccc(CCNC(=O)c2ccc3ccccc3n2)cc1OC
FC(F)(F)c1cccc(NC(=S)N(CCCN2CCCC2)Cc2cccn2Cc2ccc(Cl)cc2)c1
COc1cn(CC(=O)Nc2ccc(C)cc2C)c(CN2CCCCC2)cc1=O

Activity change, negative = displacement, inactive:
O=C(/C=N/O)NCCCCNC(=O)/C=N/O -2.83% [at 15.3 µM]

— PubChem BioAssay AID485281 (National Center for Advancing Translational Sciences (NCATS), 2010)
